According to patent publication US9676788B2, “Aza-epoxy-guaiane derivatives and treatment of cancer” (The United States of America, as represented by the …, priority 2014, dated 2017):

How the values were obtained:
T-47D = assay: NCI 60-cell line protocol, Breast Cancer T-47D; conditions: T-470 / T-47D (Breast Cancer); single dose 10 μM; two days exposure; SRB endpoint
OVCAR-4 = assay: NCI 60-cell line protocol, Ovarian Cancer OVCAR-4; assay type: cell-based, human; conditions: OVCAR-4 (Ovarian Cancer); single dose 10 μM; two days exposure; SRB endpoint
SNB-19 = assay: NCI 60-cell line protocol, CNS Cancer SNB-19; conditions: SNB-19 (CNS Cancer); single dose 10 μM; two days exposure; SRB endpoint
IGROVI = assay: NCI 60-cell line protocol, Ovarian Cancer IGROVI; conditions: single dose 10 μM, two days exposure, SRB endpoint
U251 = assay: NCI 60-cell line protocol, CNS Cancer U251; conditions: single dose 10 μM, two days exposure, SRB endpoint
HOP-62 = HOP-62 (Non-Small Cell Lung Cancer); single dose 10 μM; two days exposure; SRB endpoint
OVCAR-3 = assay: NCI 60-cell line protocol, Ovarian Cancer OVCAR-3; conditions: OVCAR-3 (Ovarian Cancer); single dose 10 μM; two days exposure; SRB endpoint
TK-10 = assay: NCI 60-cell line protocol, Renal Cancer TK-10; conditions: TK-10 (Renal Cancer); single dose 10 μM; two days exposure; SRB endpoint
HCT-116 = assay: NCI 60-cell line protocol, Colon Cancer HCT-116; conditions: HCT-116 (Colon Cancer); single dose 10 μM; two days exposure; SRB endpoint
NCI-H460 = NCI-H460 (Non-Small Cell Lung Cancer); single dose 10 μM; two days exposure; SRB endpoint
NCI/ADR-RES = assay: NCI 60-cell line protocol, Ovarian Cancer NCI/ADR-RES; conditions: single dose 10 μM, two days exposure, SRB endpoint
U0-31 = assay: NCI 60-cell line protocol, Renal Cancer U0-31; conditions: U031 / U0-31 (Renal Cancer); single dose 10 μM; two days exposure; SRB endpoint
HCC-2998 = assay: NCI 60-cell line protocol, Colon Cancer HCC-2998; conditions: HCC-2998 (Colon Cancer); single dose 10 μM; two days exposure; SRB endpoint
PC-3 = assay: NCI 60-cell line protocol, Prostate Cancer PC-3; conditions: PC-3 (Prostate Cancer); single dose 10 μM; two days exposure; SRB endpoint
NCI-H23 = NCI-H23 (Non-Small Cell Lung Cancer); single dose 10 μM; two days exposure; SRB endpoint
DU-145 = assay: NCI 60-cell line protocol, Prostate Cancer DU-145; conditions: DU-145 (Prostate Cancer); single dose 10 μM; two days exposure; SRB endpoint
OVCAR-8 = assay: NCI 60-cell line protocol, Ovarian Cancer OVCAR-8; conditions: OVCAR-8 (Ovarian Cancer); single dose 10 μM; two days exposure; SRB endpoint
SF-539 = assay: NCI 60-cell line protocol, CNS Cancer SF-539; conditions: SF-539 (CNS Cancer); single dose 10 μM; two days exposure; SRB endpoint
HOP-92 = HOP-92 (Non-Small Cell Lung Cancer); single dose 10 μM; two days exposure; SRB endpoint
HT29 = assay: NCI 60-cell line protocol, Colon Cancer HT29; conditions: single dose 10 μM, two days exposure, SRB endpoint
786-0 = assay: NCI 60-cell line protocol, Renal Cancer 786-0; conditions: 786-0 (Renal Cancer); single dose 10 μM; two days exposure; SRB endpoint
BT-549 = assay: NCI 60-cell line protocol, Breast Cancer BT-549; conditions: BT-549 (Breast Cancer); single dose 10 μM; two days exposure; SRB endpoint
SF-295 = assay: NCI 60-cell line protocol, CNS Cancer SF-295; conditions: SF-295 (CNS Cancer); single dose 10 μM; two days exposure; SRB endpoint
HCT-15 = assay: NCI 60-cell line protocol, Colon Cancer HCT-15; conditions: HCT-15 (Colon Cancer); single dose 10 μM; two days exposure; SRB endpoint
OVCAR-5 = assay: NCI 60-cell line protocol, Ovarian Cancer OVCAR-5; conditions: OVCAR-5 (Ovarian Cancer); single dose 10 μM; two days exposure; SRB endpoint
MDA-MB-231/ATCC = assay: NCI 60-cell line protocol, Breast Cancer MDA-MB-231/ATCC; conditions: MDA-MB-231/ATCC (Breast Cancer); single dose 10 μM; two days exposure; SRB endpoint
SNB-75 = assay: NCI 60-cell line protocol, CNS Cancer SNB-75; conditions: SNB-75 (CNS Cancer); single dose 10 μM; two days exposure; SRB endpoint
SK-OV-3 = assay: NCI 60-cell line protocol, Ovarian Cancer SK-OV-3; conditions: SK-OV-3 (Ovarian Cancer); single dose 10 μM; two days exposure; SRB endpoint
ACHN (renal cancer) = assay: NCI 60-cell line protocol, Renal Cancer ACHN; assay type: cell-based, human; conditions: single dose 10 μM, two days exposure, SRB endpoint
HS 578T (breast cancer) = assay: NCI 60-cell line protocol, Breast Cancer HS 578T; assay type: cell-based, human; conditions: single dose 10 μM, two days exposure, SRB endpoint
SW-620 = assay: NCI 60-cell line protocol, Colon Cancer SW-620; conditions: SW-620 (Colon Cancer); single dose 10 μM; two days exposure; SRB endpoint
A498 (renal cancer) = assay: NCI 60-cell line protocol, Renal Cancer A498; assay type: cell-based, human; conditions: single dose 10 μM, two days exposure, SRB endpoint
NCI-H226 = NCI-H226 (Non-Small Cell Lung Cancer); single dose 10 μM; two days exposure; SRB endpoint
SF-268 = assay: NCI 60-cell line protocol, CNS Cancer SF-268; conditions: SF-268 (CNS Cancer); single dose 10 μM; two days exposure; SRB endpoint
COLO205 = assay: NCI 60-cell line protocol, Colon Cancer COLO205; conditions: single dose 10 μM, two days exposure, SRB endpoint
SN12C = assay: NCI 60-cell line protocol, Renal Cancer SN12C; conditions: single dose 10 μM, two days exposure, SRB endpoint
CAKI-1 = assay: NCI 60-cell line protocol, Renal Cancer CAKI-1; conditions: CAKI-1 (Renal Cancer); single dose 10 μM; two days exposure; SRB endpoint
A549/ATCC = A549/ATCC (Non-Small Cell Lung Cancer); single dose 10 μM; two days exposure; SRB endpoint
NCI-H322M = conditions: single dose 10 μM, two days exposure, SRB endpoint
NCI-H522 = NCI-H522 (Non-Small Cell Lung Cancer); single dose 10 μM; two days exposure; SRB endpoint
MCF7 = assay: NCI 60-cell line protocol, Breast Cancer MCF7; conditions: single dose 10 μM, two days exposure, SRB endpoint
KM12 = assay: NCI 60-cell line protocol, Colon Cancer KM12; conditions: single dose 10 μM, two days exposure, SRB endpoint
MDA-MB-468 = assay: NCI 60-cell line protocol, Breast Cancer MDA-MB-468; assay type: cell-based, human; conditions: MDA-MB-468 (Breast Cancer); single dose 10 μM; two days exposure; SRB endpoint
RXF 393 = assay: NCI 60-cell line protocol, Renal Cancer RXF 393; assay type: cell-based, human; conditions: RXF 393 (Renal Cancer); single dose 10 μM; two days exposure; SRB endpoint

## CC1CCC2C1C(OC(=O)/C=C/c1ccccc1)C1(C(C)C)CC(NC(=O)CF)C2(C)O1 (stereo not drawn) [Compound 31]
T-47D
  Growth Percent: 78.42%
OVCAR-4
  Growth Percent: 104.77%
SNB-19
  Growth Percent: 103.67%
IGROVI
  Growth Percent: 103.48%
U251
  Growth Percent: 105.6%
HOP-62
  Growth Percent: 90.75%
OVCAR-3
  Growth Percent: 114.72%
TK-10
  Growth Percent: 104.2%
HCT-116
  Growth Percent: 87.42%
NCI-H460
  Growth Percent: 103.56%
NCI/ADR-RES
  Growth Percent: 98.53%
U0-31
  Growth Percent: 91.08%
HCC-2998
  Growth Percent: 107.28%
PC-3
  Growth Percent: 83.98%
NCI-H23
  Growth Percent: 101.57%
DU-145
  Growth Percent: 114.9%
OVCAR-8
  Growth Percent: 107.04%
SF-539
  Growth Percent: 87.89%
HOP-92
  Growth Percent: 75.85%
HT29
  Growth Percent: 108.62%
786-0
  Growth Percent: 97.31%
BT-549
  Growth Percent: 111.03%
SF-295
  Growth Percent: 104.84%
HCT-15
  Growth Percent: 102.83%
OVCAR-5
  Growth Percent: 101.93%
MDA-MB-231/ATCC
  Growth Percent: 101.66%
SNB-75
  Growth Percent: 87.93%
SK-OV-3
  Growth Percent: 91.26%
ACHN (renal cancer)
  Growth Percent: 104.52%
HS 578T (breast cancer)
  Growth Percent: 92.63%
SW-620
  Growth Percent: 100.57%
A498 (renal cancer)
  Growth Percent: 83.31%
NCI-H226
  Growth Percent: 84.54%
SF-268
  Growth Percent: 97.74%
COLO205
  Growth Percent: 103.21%
SN12C
  Growth Percent: 103.21%
CAKI-1
  Growth Percent: 80.94%
A549/ATCC
  Growth Percent: 94.42%
NCI-H322M; NCI-H322M (Non-Small Cell Lung Cancer)
  Growth Percent: 97.44%
NCI-H522
  Growth Percent: 102.51%
MCF7
  Growth Percent: 105.67%
KM12
  Growth Percent: 103.52%

## C/C(=C\C(=O)OC1C2C(C)CCC2C2(C)OC1(C(C)C)CC2NC(=O)CO)c1ccccc1 (stereo not drawn) [Compound 10]
T-47D
  Growth Percent: 89.34%
SNB-19
  Growth Percent: 108.35%
IGROVI
  Growth Percent: 104.22%
U251
  Growth Percent: 91.84%
HOP-62
  Growth Percent: 97.57%
TK-10
  Growth Percent: 109.09%
HCT-116
  Growth Percent: 100.8%
NCI-H460
  Growth Percent: 105.67%
NCI/ADR-RES
  Growth Percent: 72.19%
MDA-MB-468
  Growth Percent: 101.49%
U0-31
  Growth Percent: 17.49%
HCC-2998
  Growth Percent: 103.84%
PC-3
  Growth Percent: 83.12%
NCI-H23
  Growth Percent: 97.74%
DU-145
  Growth Percent: 118.84%
OVCAR-8
  Growth Percent: 61.25%
SF-539
  Growth Percent: 91.23%
HOP-92
  Growth Percent: 87.13%
HT29
  Growth Percent: 98.69%
786-0
  Growth Percent: 93.47%
BT-549
  Growth Percent: 116.58%
SF-295
  Growth Percent: 97.79%
HCT-15
  Growth Percent: 99.96%
RXF 393
  Growth Percent: 73.51%
OVCAR-5
  Growth Percent: 118.88%
MDA-MB-231/ATCC
  Growth Percent: 99.61%
SNB-75
  Growth Percent: 102.12%
SK-OV-3
  Growth Percent: 109.87%
ACHN (renal cancer)
  Growth Percent: 27.88%
HS 578T (breast cancer)
  Growth Percent: −8.92%
SW-620
  Growth Percent: 103.14%
A498 (renal cancer)
  Growth Percent: −24.59%
NCI-H226
  Growth Percent: 90.67%
SF-268
  Growth Percent: 105.59%
COLO205
  Growth Percent: 107.4%
SN12C
  Growth Percent: 84.62%
CAKI-1
  Growth Percent: 99.02%
A549/ATCC
  Growth Percent: 84.13%
NCI-H322M; […]
  Growth Percent: 105.1%
NCI-H522
  Growth Percent: 92.53%
MCF7
  Growth Percent: 89.73%
KM12
  Growth Percent: 111.83%

Read-outs that look alike come from different tables or passages of the source.
